The campaign covered roughly 150,000 compounds. About 540 (0.36%) showed an effect of 50% or more. This is one part of the list.

The experiment concerns Plasmodium falciparum. Briefly: Primary screen in NF54 nanoGlo assay, in single point, at 2uM, 72h; a lower Z score goes with more inhibition. The conditions noted are these: timepoint 72 hour. Type of experiment: functional, Erythrocyte.
As for `COc1cccc(CNC(=O)[C@@H]2CCCCN2S(=O)(=O)c2ccc3c(c2)nnn3C(C)C)c1`, the “% Inhibition” value was -35% and the Z score turned out to be 3.06.
For `Cc1nc(CNCCC(=O)OC(C)(C)C)cs1`, the “% Inhibition” value was 2% and the Z score was -0.2.
With `Cc1nc(C)c(CC(=O)N2CC[C@@]3(CCCN(CC4CC4)C3=O)C2)s1`, the “% Inhibition” value is recorded as -1% and the Z score came out at 0.16.
For the compound `CN(Cc1nccs1)c1cc([C@H]2C[C@@H](O)C2)ncn1`, the “% Inhibition” value is listed as -1% and the Z score is 0.12.
In the case of `O=C1c2ccccc2C(=O)N1CCc1cn2cc(F)ccc2n1`, the “% Inhibition” value was -5% and the Z score is listed as 0.67.
Turning to `Cc1cccc(OC(C)(C)C(=O)N[C@@H](C)c2ncnn2C)c1`, the “% Inhibition” value is given as -11% and the Z score was 2.16.
For the compound `CCn1nc(-c2ccccc2CN2CCOCC2)nc1N(C)C`, the “% Inhibition” value is listed as -10% and the Z score was determined as 1.35.
As to `COCCN1C[C@@H]2CC[C@H]1CN(C(=O)c1cc(-n3cccn3)ccc1Cl)C2`, the “% Inhibition” value is 4% and the Z score is given as -0.8.
On to `CC[C@H](C)n1ncc(NC(=O)C(C)(C)c2cccc(O)c2)c1C1CC1`, for which the “% Inhibition” value was 6% and the Z score is -0.74.
As to `CC1=C(C(=O)NCCNC(=O)OC(C)(C)C)[C@H](C)n2ncnc2N1C`, the “% Inhibition” value is -3% and the Z score was found to be 0.44.
On to `COc1cccc(Cl)c1CN1CCOC[C@H]1c1nc(-c2ccccc2)no1`, for which the “% Inhibition” value is recorded as -1% and the Z score is given as 0.08.
The corresponding values for `CN(CCCCc1ccccc1)C(=O)Nc1cccc(S(N)(=O)=O)c1` are 1% and -0.2.
In the case of `Cc1c(Br)cccc1CN1C(=O)NC2(CC(O)C2)C1=O` (stereo not given), the “% Inhibition” value is recorded as -14% and the Z score worked out at 1.81.
For the compound `CC(=O)Nc1ccc(Oc2ccc(-c3noc(CN4C(=O)COc5ccc(Cl)cc54)n3)cc2)cc1`, the “% Inhibition” value is given as -12% and the Z score turned out to be 1.46.
In the case of `Cn1ccnc1C(O)C1CCCN(CC(=O)NC2CCCCCCC2)C1` (stereo not given), the “% Inhibition” value is -7% and the Z score is 1.32.
The corresponding values for `CC1CN(CC(O)Cn2cccn2)CCN1CC(O)c1ccccc1` (stereo not given) are 0% and -0.01.
Consider `COc1ncccc1C(=O)NCc1cncc(-c2cccs2)c1`, for which the “% Inhibition” value was 10% and the Z score is given as -1.44.
With `CC(C)(CNC(=O)[C@H]1CCCOC1)C1CCC1`, the “% Inhibition” value was 1% and the Z score was -0.17.
For `CCc1nc(N2C[C@H]3CC[C@@H](C2)N(Cc2c(C)noc2C)C3=O)no1`, in that order: -1% and 0.08.
As to `O=c1ccc2c([nH]1)CCN(S(=O)(=O)c1ccc3ccccc3c1)C2`, the “% Inhibition” value is -16% and the Z score is recorded as 2.43.
For the compound `CC1CC(NC(=O)Nc2cnc3c(c2)c(=O)n(C)c(=O)n3C)c2nccn21` (stereo not given), the “% Inhibition” value was -7% and the Z score is on record as 1.16.
For `CC(C)(C)n1nnc(CNC(=O)N[C@H]2CCC[C@@H](C3CC3)C2)n1`, in that order: -2% and 0.34.
In the case of `Cc1noc(C)c1CCC(=O)N1CCN(C(=O)c2cnn3c2CCCC3)CC1`, the “% Inhibition” value is -2% and the Z score stood at 0.31.
Consider `OCCN(CCO)c1ccc2ccccc2c1`, for which the “% Inhibition” value is reported as 7% and the Z score was -0.86.
For `O=C(C1CCCC2CCCCC21)N1CCN(c2ncccn2)CC1` (stereo not given), the “% Inhibition” value worked out at 32% and the Z score was -4.57.
For `CC(=O)N1[C@@H](C)c2ccccc2C(C)(C)CC12CCCCC2`, the “% Inhibition” value came out at 7% and the Z score is reported as -0.97.
For `Cc1ccc(CNCCC2=CCCCC2)cc1`, in that order: 33% and -4.31.
In the case of `CN(C(=O)Cn1ccn2nc3c(c2c1=O)CCCC3)C1CCCCC1`, the “% Inhibition” value was -22% and the Z score amounted to 2.53.
The corresponding values for `CCS(=O)(=O)c1cccc(CC(=O)N(C)C)c1` are -2% and 0.25.
As for `O=C(NCCc1nnc2n1CCNCC2)[C@]1(c2ccccc2)CC12CCCC2`, the “% Inhibition” value is -10% and the Z score came out at 1.54.
For the compound `CCC(CC)C(=O)N(Cc1ccccc1)Cc1cc(NC(=O)C2CCCC2)ccc1N(C)C`, the “% Inhibition” value is -14% and the Z score was determined as 1.22.
For `COc1ccc(N2C(=O)[C@@H]3C[C@H]2CN3C/C=C/c2ccco2)cc1Cl`, in that order: -7% and 0.88.
On to `O=C(Nc1ccccc1)N1CC(Cn2ccnn2)C1`, for which the “% Inhibition” value was -4% and the Z score turned out to be 0.7.
For the compound `Nc1n[nH]c(CNC(=O)Nc2ccccc2C(F)(F)F)n1`, the “% Inhibition” value is listed as -3% and the Z score stood at 0.53.
Take `CN1CC(=O)N(CC(=O)N2CCCc3ccccc32)C1=O`: the “% Inhibition” value is on record as -4% and the Z score is 0.63.
Take `Cc1nccc(N2CC[C@@H](OC(C)(C)C)C2)n1`: the “% Inhibition” value was -7% and the Z score is listed as 0.84.
As to `COCC1(NC(=O)c2ccc(N3CCC3)nc2)CCCCC1`, the “% Inhibition” value is 15% and the Z score is reported as -2.02.
On to `Cc1cc(=O)[nH]c(-n2[nH]c3c(c2=O)CCCC3)n1`, for which the “% Inhibition” value was -3% and the Z score stood at 0.53.
For the compound `CC(C)(C#N)CNc1ncccc1C#N`, the “% Inhibition” value is -1% and the Z score was 0.08.
Consider `O=C(Nc1noc(-c2ccccc2)c1-c1ccc(Cl)cc1)c1ccccc1`, for which the “% Inhibition” value was found to be 6% and the Z score is recorded as -1.
The corresponding values for `COc1ccc(C(=O)N[C@H]2[C@H](O)[C@H](O)C[C@@H]2c2ccc(N3CCOCC3)nc2)cc1` are -1% and 0.15.
In the case of `CN(CC(=O)N1CCC1)c1ccc(-c2nccs2)cc1`, the “% Inhibition” value is listed as -4% and the Z score is recorded as 0.8.
For `CCC(C)(C)c1cc(-c2cnn(C)c2C)c(C#N)c(N)n1`, in that order: -9% and 1.34.
As to `Cc1cc(N(C)C)nc(N2CCN(C(=O)Nc3ccc4c(c3)OCCO4)CC2)n1`, the “% Inhibition” value was -13% and the Z score is 1.18.
Consider `Cc1nc(C(C)C)ncc1C(=O)N1CC[C@](C)(O)[C@H](CC(C)C)C1`, for which the “% Inhibition” value is on record as -2% and the Z score amounted to 0.42.
The corresponding values for `C[C@H]1CCCN(C(=O)C2CCOCC2)CC1` are -3% and 0.43.
Take `Cc1noc(NC(=O)CCn2nnnc2C)c1-c1ccccc1`: the “% Inhibition” value is listed as -10% and the Z score is recorded as 1.8.
As to `CC(C)OCc1nc(-c2c[nH]c3ncccc23)cs1`, the “% Inhibition” value came out at 10% and the Z score is given as -0.99.
In the case of `Clc1cccc(Cl)c1CNc1nc(-c2ccco2)n[nH]1`, the “% Inhibition” value is -17% and the Z score was determined as 1.94.
Take `O=c1[nH]ccc2ccn(Cc3ccccc3F)c12`: the “% Inhibition” value is 3% and the Z score is listed as -0.39.
In the case of `CCc1nc(-c2cc(S(=O)(=O)NCC(=O)NC3CCCCC3)c(C)s2)no1`, the “% Inhibition” value came to 3% and the Z score is -0.3.
Regarding `N#Cc1ccc(N2CCCN(C(=O)c3ccc(F)cc3F)CC2)cn1`, the “% Inhibition” value was -6% and the Z score stood at 0.71.
On to `COc1cccc2c1N(CC(=O)NCC(F)(F)F)CC[C@@H]2C`, for which the “% Inhibition” value was 39% and the Z score was -5.67.
For `Cc1n[nH]cc1CN1CCC[C@](C)(F)C1`, in that order: 0% and 0.06.
Regarding `Cc1cnc(CN2CC3(CCC2=O)CCN(c2ncncc2C(C)C)CC3)cn1`, the “% Inhibition” value was -12% and the Z score came out at 1.48.

As a reminder, the % Inhibition is the change of the read-out against control, counted positive when it falls.

The record behind these values is ChEMBL document CHEMBL4888484, “Replenishing the malaria drug discovery pipeline: Screening and hit evaluation of the MMV Hit Generation Library 1 (HGL1) against asexual blood stage Plasmodium falciparum ,using a nano luciferase reporter read-out” (2022).
